# Laboratory results: article PMC4336329 (PLoS ONE, 2015)
# The campaign covered roughly 310,000 compounds. About 14,000 (4.5%) showed an effect of 50% or more. The effect is printed as a negative number. The list shows a part of the results.
# Target: human ether-à-go-go-related gene (hERG) potassium channel (human, UniProt Q12809)
# Assay: primary screen, population patch clamp on CHO cells stably expressing hERG
# 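Note: peak tail current of the secondary pulse compared with the same well before compound.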
# Chain of human ether-à-go-go-related gene (hERG) potassium channel (Q12809 whole entry, looked up): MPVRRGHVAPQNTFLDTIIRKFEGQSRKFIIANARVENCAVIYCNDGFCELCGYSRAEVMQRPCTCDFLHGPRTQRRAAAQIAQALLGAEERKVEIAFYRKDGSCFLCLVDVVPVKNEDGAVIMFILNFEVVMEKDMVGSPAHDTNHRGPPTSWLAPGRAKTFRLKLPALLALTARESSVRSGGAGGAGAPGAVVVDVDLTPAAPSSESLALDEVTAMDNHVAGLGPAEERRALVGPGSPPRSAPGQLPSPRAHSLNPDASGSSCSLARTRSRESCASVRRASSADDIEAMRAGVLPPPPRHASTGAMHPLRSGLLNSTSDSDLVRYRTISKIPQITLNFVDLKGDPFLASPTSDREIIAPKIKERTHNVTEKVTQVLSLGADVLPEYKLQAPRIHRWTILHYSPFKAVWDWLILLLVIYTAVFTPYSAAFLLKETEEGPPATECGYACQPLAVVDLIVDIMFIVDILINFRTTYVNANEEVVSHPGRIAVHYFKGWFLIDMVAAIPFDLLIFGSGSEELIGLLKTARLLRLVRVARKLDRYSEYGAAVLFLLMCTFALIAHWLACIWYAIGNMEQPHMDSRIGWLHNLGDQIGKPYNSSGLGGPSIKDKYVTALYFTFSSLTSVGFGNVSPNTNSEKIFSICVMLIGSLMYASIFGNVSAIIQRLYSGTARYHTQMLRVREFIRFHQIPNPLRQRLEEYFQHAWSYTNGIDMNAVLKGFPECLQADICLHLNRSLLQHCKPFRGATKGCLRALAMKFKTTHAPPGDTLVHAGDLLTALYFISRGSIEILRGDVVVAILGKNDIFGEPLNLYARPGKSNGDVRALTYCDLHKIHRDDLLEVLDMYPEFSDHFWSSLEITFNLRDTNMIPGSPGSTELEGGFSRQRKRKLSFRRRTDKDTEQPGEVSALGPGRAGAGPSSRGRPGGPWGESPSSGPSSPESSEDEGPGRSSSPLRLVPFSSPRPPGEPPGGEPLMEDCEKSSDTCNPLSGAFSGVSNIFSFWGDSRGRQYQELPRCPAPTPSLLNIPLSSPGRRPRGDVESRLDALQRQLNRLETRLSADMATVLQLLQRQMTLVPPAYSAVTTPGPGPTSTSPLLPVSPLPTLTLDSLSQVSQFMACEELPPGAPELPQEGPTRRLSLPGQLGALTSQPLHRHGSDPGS
row,Structure (SMILES),"hERG current change (%, negative = inhibition) at 10uM"
1,COc1ccc(CNC(=O)CSc2nnc(C(F)(F)F)n2C)cc1,17.9%
2,CCc1nnc(NC(=O)CC(CN(C)S(=O)(=O)c2ccccc2)c2ccccc2)s1 (centres unmarked),29.8%
3,CC1CCCCC1NC(=O)CSc1nc2ccccc2c(=O)n1Cc1ccco1 (centres unmarked),13%
4,CC(C)(C)CN1CCNC[C@H]1Cc1cccc2ccccc12,15.7%
5,CCn1c(CC(=O)Nc2ccccc2)nnc1SCC(=O)Nc1nnc(C)s1,15%
6,CCCCNC(=O)/C(C#N)=C/c1ccc(C(=O)OC)cc1,23.5%
7,COc1ccc(NC(=O)C(Sc2ccccc2)c2ccccc2)c(OC)c1 (centres unmarked),0.758%
8,CN(C)S(=O)(=O)c1cccc(C(=O)N2CCC(C(=O)O)(c3ccccc3)CC2)c1,19.3%
9,O=C(Nc1ccc(S(=O)(=O)N2CCCCC2)cc1)C1CC(=O)N(c2ccc(Cl)cc2)C1 (centres unmarked),1.07%
10,COc1ccc(NS(=O)(=O)c2cccc(C(=O)NCc3ccco3)c2)cc1,-15.8%
11,CC(C)C[C@H](NC(=O)[C@@H]1Cc2c([nH]c3ccccc23)C2c3ccccc3C(=O)N21)C(=O)N1CCC[C@@H]1C(=O)O (some centres unmarked),7.77%
12,CC1(C)Cc2c(C#N)c(SCCOc3ccccc3)nc(N3CCOCC3)c2CO1,-9.49%
13,CC(=O)C(Sc1nc(N2CCOCC2)nc(N2CCOCC2)n1)C(=O)Nc1ccccc1 (centres unmarked),-1.74%
14,CC12CCC(C(=O)N3CCCCC3)([C@H](Br)C1=O)C2(C)C (some centres unmarked),2.72%
15,COc1ccccc1CNC(=O)C(=O)c1cn(CC(=O)N2CCOCC2)c2ccccc12,0.703%
16,Cc1c(NC(=O)COC(=O)CCc2c[nH]c3ccccc23)c(=O)n(-c2ccccc2)n1C,-26.8%
17,CC(=O)c1c(C)oc2ccc(NS(=O)(=O)c3cccs3)cc12,13.2%
18,O=C(/C=C/c1ccc(OCCCF)cc1)NCc1ccc(Cl)c(Cl)c1,4.17%
19,COc1ccc(Cc2nn[nH]n2)cc1,17%

row,Structure (SMILES),"hERG current change (%, negative = inhibition) at 10uM"
1,CCOC(=O)c1c(P(=O)(N2CCOCC2)N2CCOCC2)noc1N,-0.372%
2,O=C(N/N=C/c1cccnc1)c1ccc2c(c1)OCCO2,8.1%
3,O=C(NCc1ccccc1)c1sc(=S)n2c1[nH]c(=O)c1ccccc12,-25.7%
4,COc1ccc(OC)c(N(CC(=O)NC2CC2)S(=O)(=O)c2ccc(C)cc2)c1,-9.12%
5,Cc1ccc(C(=O)NC(=S)Nc2ccccc2C(F)(F)F)cc1,16.3%
6,O=c1c2ccccc2ncn1-c1ccc(Cl)c(Cl)c1,-1.01%
7,C=CCSc1nnc2c(n1)OC=Nc1ccc(Br)cc1-2,-24.9%
8,CCC1(C(=O)OC)NC(c2cccc(F)c2)C2C(=O)N(C)C(=O)C21 (centres unmarked),27.8%
9,CCOC(=O)c1c(S(=O)(=O)NCC(=O)Nc2cc(C)ccc2C)c(C)n(C)c1C,-30.9%
10,Oc1ccccc1/C=N/n1c(COc2ccccc2)n[nH]c1=S,19%
11,COc1cccc(-c2coc3cc4oc(=O)c(CCC(=O)O)c(C)c4cc23)c1,-8.79%
12,CN(C(=O)CSc1nnc(Cc2cccc3ccccc23)n1N)C1CCS(=O)(=O)C1 (centres unmarked),17.5%
13,CC1=C(C(=O)OC(C)C)C(c2cccs2)N2C(=O)C(C)SC2=N1 (centres unmarked),6.04%
14,CCC1C(O)=C(c2ccccn2)C(=N)N1c1ccccc1 (centres unmarked),1.47%
15,COC(=O)c1cc(S(=O)(=O)NCC2CCN(Cc3ccccc3F)CC2)c[nH]1,-21.4%
16,Cn1nc(C(F)(F)F)c(/C=N/OC(=O)c2ccccc2)c1SCc1ccccc1Cl,-4.9%
17,CCC(=O)N1c2ccccc2NC2=C(C(=O)CCC2)C1c1ccco1 (centres unmarked),22.9%
18,CCCCn1c(N)c(N(CCOC)C(=O)c2cc3c(s2)CCC3)c(=O)[nH]c1=O,0.214%
19,O=C1CCC(C(=O)OCC(=O)c2ccccc2)N1 (centres unmarked),23.7%

row,Structure (SMILES),"hERG current change (%, negative = inhibition) at 10uM"
1,O=C(Nc1ccccc1)C1CCCN(C(=O)c2ccc(Cl)cc2)C1 (centres unmarked),-9.92%
2,Cc1ccc(-n2nc(C)c(NS(=O)(=O)c3ccccc3)c2C)cc1C,-16.9%
3,O=C(Cc1ccc(O)cc1)NCCNC(=S)NCc1ccccc1,13.2%
4,Cc1cc(C)n2nc(SCC(=O)c3ccccc3)nc2n1,-27.5%
5,CC(CC(=O)O)n1nnc2ccccc21 (centres unmarked),-1.15%
6,Cc1ccsc1/C=N/Nc1ccc(F)cc1F,16.6%
7,CC(=NCc1cccnc1)C1=C(O)c2ccccc2C1=O,-27.9%
8,CC(C)CN(C(=O)COC(=O)CN1C(=O)c2ccccc2C1=O)c1c(N)n(Cc2ccccc2)c(=O)[nH]c1=O,15.3%
9,Cc1ccccc1NC(=S)Nc1ccc2cn[nH]c2c1,-0.285%
10,O=C(NC(C(=O)c1ccccc1)n1ccc(=O)[nH]c1=O)c1ccccc1 (centres unmarked),-7.32%
11,CC(NC(=O)CCNC(=O)c1ccccc1Cl)C1CC2CCC1C2 (centres unmarked),-5.78%
12,CCOc1ccc(CCNC(=O)Cn2ccc3ccccc3c2=O)cc1OCC,3.39%
13,O=C(COC(=O)C1CCCCC1)Nc1ccc(S(=O)(=O)N2CCOCC2)cc1,-6.65%
14,Cc1onc(-c2ccccc2)c1NC(=O)N(CCC#N)Cc1ccccc1,3.65%
15,COc1cccc(CN2CCN(c3nc4nonc4nc3NC3CC3)CC2)c1,-9.54%
16,CC(C)c1ccc(S(=O)(=O)N2CCCCC2)cc1,-27.4%
17,CC(Nc1nc(-c2ccc(Cl)cc2)cs1)c1nc2cc(Cl)c(N3CCCCC3)cc2n1CCOCCO (centres unmarked),6.93%
18,O=C(COC(=O)c1ccc2ccccc2n1)c1ccc(F)cc1,-14.8%
